Results published in PMC12136788.
Some of the results follow.

B1: ENSG00000198589:be:win_1101|CDS|ENSG00000198589|bound_else_gene|NA|bound_elsewhere_windowed (ssRNA)
RNA: GGGAGUUCUACAGUCCGACGAUCCAGUGAAGCUCUAAAUGCAGCUCAGAUAUUUGCUAUUUAUCAGUUGGGCCUGGGAUACAAGGGUACAUUUAAAUUCAAAGCAGAAAGCGACCUUUUCCUUGCUGAGCAUCACAAACUUUUCAACAGAGGAUUGAGCAUCA
B2: chr18:55226207:55226308:-|3pUTR|ENSG00000196628|unk|FALSE|unique (ssRNA)
RNA: GGGAGUUCUACAGUCCGACGAUCAUUUUUACAGCCACACAAUUCUUGGCAUGUAUUAAGAAAAAAAAAAAUCCCUGUUCAAGUAGUUUUUCCACCUAUCAGCACUGAGUAAAUGCCAUAAAUCCAUUGAAAUGGUCUAAAUGUCAACAGAGGAUUGAGCAUCA
B3: chr5:36975901:36976008:+|CDS|ENSG00000164190|unk|FALSE|unique (ssRNA)
RNA: GGGAGUUCUACAGUCCGACGAUCAUGAAAUUAGGCAAGGAUGAAAAAGAGCAGAGUGAGAAAGCGGCAAUGUAUGAUAUAAUUAGUUCUCCAUCCAAGGACUCUACUAAACUUACAUUAAGACUUUCUCGUGUAAGGUCUUCACAACAGAGGAUUGAGCAUCA
B4: ENSG00000198589:be:win_3001|CDS|ENSG00000198589|bound_else_gene|NA|bound_elsewhere_windowed (ssRNA)
RNA: GGGAGUUCUACAGUCCGACGAUCCUAGAAUCUGCAUCUAAUAUUGAACUGCAAACUACUAAUACAUCUUAUGAAGAAAUGAAAGCUGAGCAAGAAAAUCAGGAGUUACCAGAUGAAGGCACUUUGGAAGAAACACUGACAAAUCAACAGAGGAUUGAGCAUCA
B5: ENSG00000080224:stop:overlap|stop_codon|ENSG00000080224|stop_codon|NA|stop_codon (ssRNA)
RNA: GGGAGUUCUACAGUCCGACGAUCGUACAGGAUAUGAAGAAAUUGAGGGUUCUUGCCAUGGAGCCUCCAAAGGCCGCUGCUUCUAGUUGGCCAUCUUGGCCCCACCCCGAAACAGUAACCUUUGAAGAAUAAAAGAAAAAGCAACAACAGAGGAUUGAGCAUCA
B6: chr16:55506527:55506628:+|3pUTR|ENSG00000087245|msi1|total|mutant (ssRNA)
RNA: GGGAGUUCUACAGUCCGACGAUCUAUCAGUUUUAAUGCUACUACUAACAAUGAACAGUAACAAUAAUAUCCCCCUCAAUUAACCGAGUGCUUUCUAUGUGCAAGGCACUUUUCACGUGUCACCUAUUUUAACCUUUCCAACCACAACAGAGGAUUGAGCAUCA
B7: chr2:24000049:24000165:+|3pUTR|ENSG00000173960|unk|FALSE|unique (ssRNA)
RNA: GGGAGUUCUACAGUCCGACGAUCGUAGCAUAUGACUGGAAACUAUAUUCAGUGCACUUUCUCCAAAAGACUACCCAGAAAAAUAGACUUAUUUUCAAAUACCAGUUAUCAAGAUAUAUUAAAUAGCUGUAUUGUUUAGAAUCUCAACAGAGGAUUGAGCAUCA
B8: chr7:88197266:88197367:+|3pUTR|ENSG00000008277|unk|FALSE|unique (ssRNA)
RNA: GGGAGUUCUACAGUCCGACGAUCCAAAACAUGUGAUAUCCCUUUAACCUGUGCACAGUCUGGAGGCAGUUUUAUUGAGUGAGUAGUUGAGUGAGAGAACAAAAUGCCCAGCAAAACUUCUGGCCUCCACAGUUUGCUGAUGCACAACAGAGGAUUGAGCAUCA
B9: chr11:2928445:2928542:-|3pUTR|ENSG00000181649|msi1_unk|total|mutant (ssRNA)
RNA: GGGAGUUCUACAGUCCGACGAUCAUUGGACUAUCUAAUAUCUAUGUAUUUAUUUCGCUGGUUCUUUGCCGUCACAUAUUUUACCGUCUUAAUAUCUUGUUUUUGCAUCACUGUGCCCAUUGCAAAUAAAUCACUUGGCCAGUUCAACAGAGGAUUGAGCAUCA
B10: chr16:57253408:57253449:+|3pUTR|ENSG00000102931|msi1_unk|FALSE|overlapping (ssRNA)
RNA: GGGAGUUCUACAGUCCGACGAUCUGUGUGGUAGAUUACUUAUCAGAAAACAUAUAUGUCAUCUCUAGAACGAAGAAAAAGCAUAGUAGUUCAAUUCCCAGUGUGUCCCUUUGAUUUUUUUUUUUUAAUAGUAAAAAUAAGAAUCAACAGAGGAUUGAGCAUCA
B11: chr6:109506326:109506547:-|CDS|ENSG00000155085|control|control|control (ssRNA)
RNA: GGGAGUUCUACAGUCCGACGAUCAAUAGUGCACAAAUUGUAGCUGUCAAUAAUGUAAAGUAUCGCAAAAAUAUUGGUGAGAUUAGGCAAUAUUAUCAAGAACAGCAUCAGAACUGGUAUGUGAUUGAUGGAUUUCACAGCAAACAACAGAGGAUUGAGCAUCA
B12: ENSG00000136451:be:win_2851|3pUTR|ENSG00000136451|bound_else_gene|NA|bound_elsewhere_windowed (ssRNA)
RNA: GGGAGUUCUACAGUCCGACGAUCAUUUUAUCUCUGUACAUAAAGUAGAAACCAAAAGCUAGGGAAACAGAUACUCUUUACACCAUCAUGCCACGCAUUGUUUUUAAAGCAUUGCGUUAAAAAAAAAAUUAACUAAACCAAGAUCAACAGAGGAUUGAGCAUCA
B13: chr2:25742488:25742589:-|CDS|ENSG00000143970|unk|total|mutant (ssRNA)
RNA: GGGAGUUCUACAGUCCGACGAUCCACUUUAAGUAAGGAGAAUUACCUGUUCACCCGAGGCCAAACAUUUGAUGAAAAGACCCCCGCCAGAGAUUUAAUUCAGGCAGCACAGAAGCAGAUGGCUCAUGCAGUGAGAGGUAAGGCCAACAGAGGAUUGAGCAUCA
B14: chr9:127087347:127088938:-|three_prime_utr|ENSG00000136859|control|control|control (ssRNA)
RNA: GGGAGUUCUACAGUCCGACGAUCAUAUACAUGUGUAUGAGCCUCCCUUGUGCACGUAUGUGUAUACCACAUAUAUAUGCAUUUAGAUAUACAUCACAUGUGAUAUAUCUAGAUCCAUAUAUAGGUUUGCCUUAGAUACCUAAACAACAGAGGAUUGAGCAUCA
B15: chr11:111720585:111720689:+|CDS|ENSG00000170145|unk|total|mutant (ssRNA)
RNA: GGGAGUUCUACAGUCCGACGAUCGUCUGUUCAGAGGGACCUGAACUUUCUGGAAGACAACCCUUCCCUUAAGGACAUCAUGUCCGCCAAUCAGCCUUCACCCCGCAUGACAUCUCCCUUCAUAAGCCUGAGACCUACCAACCCCAACAGAGGAUUGAGCAUCA
B16: chr8:41262982:41263083:-|3pUTR|ENSG00000104332|msi1|total|mutant (ssRNA)
RNA: GGGAGUUCUACAGUCCGACGAUCCAACCGGGCCCUCUCUCUGCGGCAGAGUCCUCCGUGGAGGGGUUUACCUGGAACAUCCGCCGUUACCACAGAAUACGGAAGAGCAGGUGACUGUGCUGUGCAGCUCUCUAAAUGGGAAUUCAACAGAGGAUUGAGCAUCA
B17: chrX:120613669:120613770:+|3pUTR|ENSG00000232119|msi1|FALSE|bound_elsewhere (ssRNA)
RNA: GGGAGUUCUACAGUCCGACGAUCUAUGCCUCCUGUAUAUCCUGUAAACAAAUAAGAUUGAUCAGAUUCAGGUUCAGUUUUUUUAGUGCCUUCUUUUGAGUAAAGUCAUACCAAACAGAUGCCCAGAACAUCUGGAUUUGGGUCCAACAGAGGAUUGAGCAUCA
B18: chr12:131960804:131960905:+|CDS|ENSG00000183495|unk|total|mutant (ssRNA)
RNA: GGGAGUUCUACAGUCCGACGAUCCCCUCAGCAAGCCCGUCGGCACCCCAGUCUCCCAGUUAUCAAAUACAGCAGCUGAUGAACCGGAGCCCUGCAACCGGGCAGAACGUGAACAUCACCCUGCAGAGCGUGGGCCCUGUCGUCCAACAGAGGAUUGAGCAUCA
B19: chr1:183252010:183252124:-|3pUTR|ENSG00000157064|unk|FALSE|unique (ssRNA)
RNA: GGGAGUUCUACAGUCCGACGAUCUCUUUGUUCACUCCCUGUAGAACUUGGAUGAAAUCAGUGUCCAUGGUUCUUUAUGUUUGUAGUCUUGAUGUGCUCCUGUGGUAUUACUUCCCCUCUGAUAGGACAUUGUAGCCAGCCUCACAACAGAGGAUUGAGCAUCA
B20: chr3:17009782:17009883:+|CDS|ENSG00000154822|unk|FALSE|unique (ssRNA)
RNA: GGGAGUUCUACAGUCCGACGAUCAAUUCAAUGGUUGAGGGUUCAGAACUCAAAAAGGUUCGCUCCAACUCUAGAAUUUAUCAUAGGUACUUUUUACUGGAUGCUGACAUGCAGAGCCUAAGGUGGGAGCCAUCUAAGAAGGAUCAACAGAGGAUUGAGCAUCA
B21: chr14:75048437:75048538:-|CDS|ENSG00000119684|unk|total|mutant (ssRNA)
RNA: GGGAGUUCUACAGUCCGACGAUCUCAGAAGCGUGUGACUUCCGAUGAGAGGAGCAAUUUCCAGGAAGCAUGUAAUAAUAUUUCCGAUUCCUAUGAGAUGUUUAAUUUGCAGUCAAAAGCUGUGAAAAGAAAAACUACUGCAGACAACAGAGGAUUGAGCAUCA
B22: chr8:41661800:41661941:-|CDS|ENSG00000029534|control|control|control (ssRNA)
RNA: GGGAGUUCUACAGUCCGACGAUCGGUUCGACAGAUAGACUUGUCCAGCGCCGAUGCCGCCCAGGAGCACGAGGAGGUGACUGUAGAGGGGCCCCUGGAGGAUCCCAGUGAGCUGGAGGUCGAUAUUGAUUACUUUAUGAAACACAACAGAGGAUUGAGCAUCA

These binders were tested against MSI1 full-length (mouse, UniProt Q61474 1-362) (assay: nsRBNS (natural sequence RNA bind-n-seq); RBNS binding buffer (assumed for nsRBNS): 25 mM Tris pH 7.5, 150 mM KCl, 3 mM MgCl2, 0.01% Triton X-100, 500 ug/ml BSA, 20 U/ml SUPERase-In, 4 C; UNK is unkempt and MSI1 is Musashi-1; names of the RNAs are library labels; protein concentration not given here; high values mean tight binding).
UniProt Q61474, sequence (Q61474 whole entry): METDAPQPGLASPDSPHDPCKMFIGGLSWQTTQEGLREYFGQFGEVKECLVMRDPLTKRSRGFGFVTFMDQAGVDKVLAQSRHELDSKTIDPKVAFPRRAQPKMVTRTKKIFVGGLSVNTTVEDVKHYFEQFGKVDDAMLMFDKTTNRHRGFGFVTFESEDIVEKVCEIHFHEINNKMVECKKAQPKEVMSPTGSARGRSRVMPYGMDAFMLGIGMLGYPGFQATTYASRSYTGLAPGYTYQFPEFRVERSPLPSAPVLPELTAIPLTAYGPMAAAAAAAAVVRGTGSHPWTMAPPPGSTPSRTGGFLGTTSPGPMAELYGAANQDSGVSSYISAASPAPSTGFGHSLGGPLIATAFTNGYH

Binder | binding signal
B1 | 0.395 enrichment R
B2 | 0.374 enrichment R
B3 | 0.703 enrichment R
B4 | 0.527 enrichment R
B5 | 0.769 enrichment R
B6 | 4.38 enrichment R
B7 | 3.66 enrichment R
B8 | 1.66 enrichment R
B9 | 1.82 enrichment R
B10 | 21 enrichment R
B11 | 1.91 enrichment R
B12 | 8.02 enrichment R
B13 | 0.51 enrichment R
B14 | 0.269 enrichment R
B15 | 0.613 enrichment R
B16 | 0.416 enrichment R
B17 | 0.755 enrichment R
B18 | 0.583 enrichment R
B19 | 1.33 enrichment R
B20 | 1.02 enrichment R
B21 | 0.272 enrichment R
B22 | 0.668 enrichment R
